# Experimental data taken from ChEMBL document CHEMBL5606460, “ASAP - DENV-2 NS2B-NS3 protease fluorescence single point” (2024).
# The whole screen tested about 2,000 compounds, of which about 110 (5.5%) showed an effect of 50% or more. Some of the results follow.
# Target: Genome polyprotein (dengue virus type 2) (UniProt P29990)
# [1] = Thailand/16681/1984, Concentration 25.0 uM, Number of replicates 1.0
smiles,measurement,setting,value
COc1cccc(-c2cc(CNC(=O)C3CCN(c4ccc(C=O)cc4)CC3)on2)c1,inhibition,[1],1.16%
Cc1cc(CO)c2cccc(Cc3ccccc3NC(=O)C(=O)c3ccco3)c2n1,inhibition,"Thailand/16681/1984, Concentration 49.95 uM, Number of replicates 2.0, Standard deviation 0.9554561588063234 %",1.82%
same,inhibition,"Thailand/16681/1984, Concentration 99.9 uM, Number of replicates 2.0, Standard deviation 0.5615035809225083 %",6.45%
CCN(CC)C1CCN(C(=O)C2CCN(c3ccc(C=O)cc3)CC2)CC1,inhibition,[1],12.6%
Cc1c(C(=O)N2CCC(n3cc(CO)nn3)CC2)[nH]c2cc(Cl)cc(Cl)c12,inhibition,"Thailand/16681/1984, Concentration 49.5 uM, Number of replicates 2.0, Standard deviation 0.5692523106313726 %",-0.277%
same,inhibition,"Thailand/16681/1984, Concentration 99.01 uM, Number of replicates 2.0, Standard deviation 1.4870917854757075 %",1.31%
same,inhibition,"Thailand/16681/1984, Concentration 198.0 uM, Number of replicates 2.0, Standard deviation 1.8665932626763497 %",1.93%
COc1cc(COc2cncnc2)nc(N2CCNCC2)n1,inhibition,"Thailand/16681/1984, Concentration 49.5 uM, Number of replicates 2.0, Standard deviation 3.306986633712837 %",-2.35%
same,inhibition,"Thailand/16681/1984, Concentration 99.01 uM, Number of replicates 2.0, Standard deviation 2.7720530174645646 %",-0.505%
same,inhibition,"Thailand/16681/1984, Concentration 198.0 uM, Number of replicates 2.0, Standard deviation 2.4477408574870583 %",0.524%
O=Cc1ccc(N2CCC(C(=O)NCCOc3ccc(F)cc3)CC2)cc1,inhibition,[1],14.7%
Cc1cc(CO)c2cccc(Cc3cccc(C(=O)NC[C@H](C)O)c3)c2n1,inhibition,"Thailand/16681/1984, Concentration 49.95 uM, Number of replicates 2.0, Standard deviation 1.3417230059830858 %",-6.96%
same,inhibition,"Thailand/16681/1984, Concentration 99.9 uM, Number of replicates 2.0, Standard deviation 0.8544771145149516 %",-2.86%
O=Cc1ccc(N2CCC(C(=O)Nc3ccc(Oc4ccccc4Cl)cc3)CC2)cc1,inhibition,[1],1.73%
O=Cc1ccc(N2CCC(C(=O)NCc3ccc(Oc4ccccc4)cc3)CC2)cc1,inhibition,[1],0.672%
Cn1ccc(CN2CC[C@H](c3c[nH]c4ccccc34)C2)cc1=O,inhibition,"Thailand/16681/1984, Concentration 49.5 uM, Number of replicates 2.0, Standard deviation 0.21460734300344697 %",0.103%
same,inhibition,"Thailand/16681/1984, Concentration 99.01 uM, Number of replicates 2.0, Standard deviation 0.11163920453838377 %",1.03%
same,inhibition,"Thailand/16681/1984, Concentration 198.0 uM, Number of replicates 2.0, Standard deviation 0.8654745549171718 %",1.07%
Cc1cn[nH]c1CNC(=O)[C@]1(c2ccc(F)cc2)CCCNC1,inhibition,"Thailand/16681/1984, Concentration 49.5 uM, Number of replicates 2.0, Standard deviation 0.2704269505409949 %",-0.869%
same,inhibition,"Thailand/16681/1984, Concentration 99.01 uM, Number of replicates 2.0, Standard deviation 0.4991246013992932 %",-1.21%
same,inhibition,"Thailand/16681/1984, Concentration 198.0 uM, Number of replicates 2.0, Standard deviation 1.3309990354074284 %",-0.684%
COC[C@@H](C)CN1CC[C@H](c2c[nH]c3ccccc23)C1,inhibition,"Thailand/16681/1984, Concentration 49.5 uM, Number of replicates 2.0, Standard deviation 0.08616808327890092 %",0.241%
same,inhibition,"Thailand/16681/1984, Concentration 99.01 uM, Number of replicates 2.0, Standard deviation 0.5148408240342175 %",1.15%
same,inhibition,"Thailand/16681/1984, Concentration 198.0 uM, Number of replicates 2.0, Standard deviation 0.4481825063942973 %",1.88%
O=Cc1ccc(N2CCC(C(=O)N[C@H](c3ccccc3)C(F)(F)F)CC2)cc1,inhibition,[1],13.1%
O=Cc1ccc(N2CCC(C(=O)NC3CCN(Cc4ccccc4F)CC3)CC2)cc1,inhibition,[1],16.3%
CCCCCC(=O)N[C@H](C(=O)N1CCNCC1)c1ccc(OCc2ccccc2)cc1,inhibition,"Thailand/16681/1984, Concentration 49.5 uM, Number of replicates 2.0, Standard deviation 0.4437756319139982 %",0.147%
same,inhibition,"Thailand/16681/1984, Concentration 99.01 uM, Number of replicates 2.0, Standard deviation 0.11965810608291498 %",0.812%
same,inhibition,"Thailand/16681/1984, Concentration 198.0 uM, Number of replicates 2.0, Standard deviation 0.14254932391463687 %",1.93%
CC(C)(C)C1CCC(NC(=O)C2CCN(c3ccc(C=O)cc3)CC2)CC1 (stereo not drawn),inhibition,[1],12.1%
O=Cc1ccc(N2CCC(C(=O)NCc3ccc(Br)cc3)CC2)cc1,inhibition,[1],4.59%
CNC(=O)c1cc(Cl)ccc1NS(=O)(=O)c1ccccc1C#N,inhibition,"Thailand/16681/1984, Concentration 49.5 uM, Number of replicates 2.0, Standard deviation 0.10251032359146967 %",1.55%
same,inhibition,"Thailand/16681/1984, Concentration 99.01 uM, Number of replicates 2.0, Standard deviation 0.28156151571484545 %",3.55%
same,inhibition,"Thailand/16681/1984, Concentration 198.0 uM, Number of replicates 2.0, Standard deviation 0.7872788535987583 %",6.07%
CCN(Cc1cccc(Cl)c1)C(=O)C1CCN(c2ccc(C=O)cc2)CC1,inhibition,[1],14.9%
CN1CCN(C[C@H]2CCCN(C(=O)C3CCN(c4ccc(C=O)cc4)CC3)C2)CC1,inhibition,[1],14.4%
O=Cc1ccc(N2CCC(C(=O)NCC(=O)NCC(F)(F)F)CC2)cc1,inhibition,[1],9.52%
O=C1CC[C@H](NS(=O)(=O)c2ccc(Oc3ccccc3)cc2)CN1,inhibition,"Thailand/16681/1984, Concentration 49.5 uM, Number of replicates 2.0, Standard deviation 1.369122840787412 %",-5.36%
same,inhibition,"Thailand/16681/1984, Concentration 99.01 uM, Number of replicates 2.0, Standard deviation 0.9220307576577886 %",-4.67%
same,inhibition,"Thailand/16681/1984, Concentration 198.0 uM, Number of replicates 2.0, Standard deviation 1.7703195346995826 %",-3.62%
O=Cc1ccc(N2CCC(C(=O)N3CCC(O)(Cc4ccccn4)CC3)CC2)cc1,inhibition,[1],12.5%
O=Cc1ccc(N2CCC(C(=O)Nc3cccc(Br)n3)CC2)cc1,inhibition,[1],92.6%
O=Cc1ccc(N2CCC(C(=O)Nc3ccc(I)cn3)CC2)cc1,inhibition,[1],13.3%
